Measured values published in the supplement of paper PMC10369915.
The other results are listed elsewhere or left out. Cut-off read from the data, not from the text of the source: active = 3.2 or more and inactive = the rest. Only a few entries rise above the background.

These binders were tested against SHP2 C-SH2 domain E139D (assay: enrichment score (SH2-bound / input frequency) (ratio); bacterial display of known human phosphotyrosine sites (pTyr-Var adds point mutants) read by sequencing; higher = stronger binding; tyrosines were phosphorylated by kinases first). Settings: peptide library: Human pTyr.
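Note: displayed peptides selected on beads carrying the immobilized SH2 domain, with library peptides lacking any tyrosine serving as negative controls.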

Enrichment score, inactive:
GSGSESGYTTPKKRK [NUFP2_HUMAN_218] 1.14, FGMSRDVYSTDYYRL [NTRK3_HUMAN_705] 1.02, NQDAEALYTAMKGFG [ANXA6_HUMAN_30] 0.568, FGMSRDVYSTDYYRV [NTRK2_HUMAN_702] 0.777, FGMSRDVYSTDAARL [NTRK3_HUMAN_705_YA] 0.603, KRTEQDHYETDYTTG [OCLN_HUMAN_398] 0.996, DDQSEAVYEEMKYPI [NYAP2_HUMAN_268] 1.06, DIASTDAYRVGGRTM [NTRK1_HUMAN_681_YA] 0.661, DIYSTDYYRVGGRTM [NTRK1_HUMAN_681] 0.9, EDEESEDYQNSASIH [NTAL_HUMAN_193] 1.06, DVASTDAYRLFNPSG [NTRK3_HUMAN_710_YA] 0.606, DQDARDLYDAGVKRK [ANXA2_HUMAN_199] 0.932, KVVCMDKYRLSCLEE [NOS2_HUMAN_575] 0.977, FGMSRDVYSTDAARV [NTRK2_HUMAN_702_YA] 0.577, KRTEQDHYETDATTG [OCLN_HUMAN_398_YA] 0.95, EEDGEPDYVNGEVAA [NTAL_HUMAN_233] 1.29, DSANSSFYSTRSAPA [NUMA1_HUMAN_1836] 0.565, FGMSRDIYSTDAARV [NTRK1_HUMAN_676_YA] 0.783

Each binder was assayed against SHP2 C-SH2 domain wild-type in the same assay as above. Settings: peptide library: Human pTyr.

Enrichment score, inactive:
GSGSESGYTTPKKRK [NUFP2_HUMAN_218] 1.28, FGMSRDVYSTDYYRL [NTRK3_HUMAN_705] 0.883, NQDAEALYTAMKGFG [ANXA6_HUMAN_30] 0.508, FGMSRDVYSTDYYRV [NTRK2_HUMAN_702] 0.797, FGMSRDVYSTDAARL [NTRK3_HUMAN_705_YA] 0.543, KRTEQDHYETDYTTG [OCLN_HUMAN_398] 0.943, DDQSEAVYEEMKYPI [NYAP2_HUMAN_268] 1.08, DIASTDAYRVGGRTM [NTRK1_HUMAN_681_YA] 0.577, DIYSTDYYRVGGRTM [NTRK1_HUMAN_681] 0.683, EDEESEDYQNSASIH [NTAL_HUMAN_193] 1.16, DVASTDAYRLFNPSG [NTRK3_HUMAN_710_YA] 0.486, DQDARDLYDAGVKRK [ANXA2_HUMAN_199] 0.798, KVVCMDKYRLSCLEE [NOS2_HUMAN_575] 0.883, FGMSRDVYSTDAARV [NTRK2_HUMAN_702_YA] 0.638, KRTEQDHYETDATTG [OCLN_HUMAN_398_YA] 0.929, EEDGEPDYVNGEVAA [NTAL_HUMAN_233] 1.1, DSANSSFYSTRSAPA [NUMA1_HUMAN_1836] 0.594, FGMSRDIYSTDAARV [NTRK1_HUMAN_676_YA] 0.642

Each binder was assayed against SHP2 N-SH2 domain L43F in the same assay as above. Settings: peptide library: Human pTyr.

Enrichment score, inactive:
GSGSESGYTTPKKRK [NUFP2_HUMAN_218] 0.997, FGMSRDVYSTDYYRL [NTRK3_HUMAN_705] 0.801, NQDAEALYTAMKGFG [ANXA6_HUMAN_30] 0.605, FGMSRDVYSTDYYRV [NTRK2_HUMAN_702] 0.732, FGMSRDVYSTDAARL [NTRK3_HUMAN_705_YA] 0.583, KRTEQDHYETDYTTG [OCLN_HUMAN_398] 0.788, DDQSEAVYEEMKYPI [NYAP2_HUMAN_268] 1.22, DIASTDAYRVGGRTM [NTRK1_HUMAN_681_YA] 0.65, DIYSTDYYRVGGRTM [NTRK1_HUMAN_681] 0.696, EDEESEDYQNSASIH [NTAL_HUMAN_193] 0.967, DVASTDAYRLFNPSG [NTRK3_HUMAN_710_YA] 0.946, DQDARDLYDAGVKRK [ANXA2_HUMAN_199] 0.7, KVVCMDKYRLSCLEE [NOS2_HUMAN_575] 0.935, FGMSRDVYSTDAARV [NTRK2_HUMAN_702_YA] 0.688, KRTEQDHYETDATTG [OCLN_HUMAN_398_YA] 1.05, EEDGEPDYVNGEVAA [NTAL_HUMAN_233] 1.17, DSANSSFYSTRSAPA [NUMA1_HUMAN_1836] 0.699, FGMSRDIYSTDAARV [NTRK1_HUMAN_676_YA] 0.704

What follows are binders tested against SHP2 N-SH2 domain T42A in the same assay as above. Settings: peptide library: Human pTyr.

Enrichment score, inactive:
GSGSESGYTTPKKRK [NUFP2_HUMAN_218] 1.1, FGMSRDVYSTDYYRL [NTRK3_HUMAN_705] 0.788, NQDAEALYTAMKGFG [ANXA6_HUMAN_30] 0.491, FGMSRDVYSTDYYRV [NTRK2_HUMAN_702] 0.635, FGMSRDVYSTDAARL [NTRK3_HUMAN_705_YA] 0.624, KRTEQDHYETDYTTG [OCLN_HUMAN_398] 0.718, DDQSEAVYEEMKYPI [NYAP2_HUMAN_268] 1.06, DIASTDAYRVGGRTM [NTRK1_HUMAN_681_YA] 0.606, DIYSTDYYRVGGRTM [NTRK1_HUMAN_681] 0.706, EDEESEDYQNSASIH [NTAL_HUMAN_193] 1.17, DVASTDAYRLFNPSG [NTRK3_HUMAN_710_YA] 0.469, DQDARDLYDAGVKRK [ANXA2_HUMAN_199] 0.61, KVVCMDKYRLSCLEE [NOS2_HUMAN_575] 1.09, FGMSRDVYSTDAARV [NTRK2_HUMAN_702_YA] 0.561, KRTEQDHYETDATTG [OCLN_HUMAN_398_YA] 0.886, EEDGEPDYVNGEVAA [NTAL_HUMAN_233] 1.21, DSANSSFYSTRSAPA [NUMA1_HUMAN_1836] 0.627, FGMSRDIYSTDAARV [NTRK1_HUMAN_676_YA] 0.66

Each binder was assayed against SHP2 N-SH2 domain T52S in the same assay as above. Settings: peptide library: Human pTyr.

Enrichment score, inactive:
GSGSESGYTTPKKRK [NUFP2_HUMAN_218] 1.1, FGMSRDVYSTDYYRL [NTRK3_HUMAN_705] 0.634, NQDAEALYTAMKGFG [ANXA6_HUMAN_30] 0.607, FGMSRDVYSTDYYRV [NTRK2_HUMAN_702] 0.849, FGMSRDVYSTDAARL [NTRK3_HUMAN_705_YA] 0.574, KRTEQDHYETDYTTG [OCLN_HUMAN_398] 0.862, DDQSEAVYEEMKYPI [NYAP2_HUMAN_268] 1.11, DIASTDAYRVGGRTM [NTRK1_HUMAN_681_YA] 0.633, DIYSTDYYRVGGRTM [NTRK1_HUMAN_681] 0.663, EDEESEDYQNSASIH [NTAL_HUMAN_193] 1.2, DVASTDAYRLFNPSG [NTRK3_HUMAN_710_YA] 0.517, DQDARDLYDAGVKRK [ANXA2_HUMAN_199] 0.694, KVVCMDKYRLSCLEE [NOS2_HUMAN_575] 1.12, FGMSRDVYSTDAARV [NTRK2_HUMAN_702_YA] 0.553, KRTEQDHYETDATTG [OCLN_HUMAN_398_YA] 1.07, EEDGEPDYVNGEVAA [NTAL_HUMAN_233] 1.23, DSANSSFYSTRSAPA [NUMA1_HUMAN_1836] 0.673, FGMSRDIYSTDAARV [NTRK1_HUMAN_676_YA] 0.613

Each binder was assayed against SHP2 N-SH2 domain wild-type in the same assay as above. Settings: peptide library: Human pTyr.

Enrichment score, inactive:
GSGSESGYTTPKKRK [NUFP2_HUMAN_218] 1.28, FGMSRDVYSTDYYRL [NTRK3_HUMAN_705] 1.13, NQDAEALYTAMKGFG [ANXA6_HUMAN_30] 0.55, FGMSRDVYSTDYYRV [NTRK2_HUMAN_702] 0.822, FGMSRDVYSTDAARL [NTRK3_HUMAN_705_YA] 0.632, KRTEQDHYETDYTTG [OCLN_HUMAN_398] 0.88, DDQSEAVYEEMKYPI [NYAP2_HUMAN_268] 1.15, DIASTDAYRVGGRTM [NTRK1_HUMAN_681_YA] 0.528, DIYSTDYYRVGGRTM [NTRK1_HUMAN_681] 0.575, EDEESEDYQNSASIH [NTAL_HUMAN_193] 1.15, DVASTDAYRLFNPSG [NTRK3_HUMAN_710_YA] 0.484, DQDARDLYDAGVKRK [ANXA2_HUMAN_199] 0.813, KVVCMDKYRLSCLEE [NOS2_HUMAN_575] 0.919, FGMSRDVYSTDAARV [NTRK2_HUMAN_702_YA] 0.706, KRTEQDHYETDATTG [OCLN_HUMAN_398_YA] 1.16, EEDGEPDYVNGEVAA [NTAL_HUMAN_233] 1.27, DSANSSFYSTRSAPA [NUMA1_HUMAN_1836] 0.705, FGMSRDIYSTDAARV [NTRK1_HUMAN_676_YA] 0.654
